Laboratory results reported in PubChem BioAssay AID588855 (National Center for Advancing Translational Sciences (NCATS), 2011).
Where “and” joins values, the source holds several entries; their conditions need not be identical. Equal values may be shown once. Among all 410,000 compounds or so, about 5,000 (1.2%) were called active. Inconclusive results, whose numbers are uncertain, are shown with a selection of clear calls. The call rests on the fitted dose curve; in most records, active means well fitted inhibition curve with a large enough effect; inconclusive means small, poorly fitted or top-dose-only effect; inactive means no such curve, though single readings can be large or run the other way. Potencies of inconclusive entries are doubtful fits and often do not repeat.

Experiment: qHTS for Inhibitors of TGF-b; further: nearly all actives have a fitted effect of over 65% in size
Details: HepG2 CAGA-GFP TGF-b/SMAD3 reporter, GFP fluorescence, 18 h, TGF-beta stimulated, 500 pg/mL final; series mostly up to 46.1 µM
How it was run: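 Smad-responsive CAGA-GFP expression was quantified in HEPG2 cells exposed to compounds and 500 pg/mL final TGF-beta for 18 h at 37 degrees C; unstimulated wells defined full inhibition.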
Potency means the concentration at half of the fitted maximal effect; tags describe the fitted curve by direction and shape.

Row | Compound | Potency
1 | COc1cc(-c2cccc([C@H]3[C@@H]4C=CC[C@@H](C)[C@@H]4C(=O)N3Cc3ccccc3)c2)cc(OC)c1OC | inconclusive: 35.5 µM [inhibitor, single point]
2 | Cc1ccc(N=CC=C2OC(C)(C)C(C)(C)O2)cc1 | inconclusive: 22.4 µM [inhibitor, single point]
3 | Cc1cnc(NC(=O)C2(C)CCN2C(=O)C(C)C)s1 (stereo not drawn) | inactive
4 | O=C(NNc1c2ccccc2nc2ccccc12)c1ccccc1O | inconclusive: 35.5 µM [inhibitor, single point]
5 | CCCC(=O)NC(c1cccs1)c1cc(Cl)c2cccnc2c1O (stereo not drawn) | inconclusive: 5.62 µM [inhibitor, single point]
6 | Cc1cccc(NC(=O)C2CC(=O)N(Cc3ccccc3)C2)n1 (stereo not drawn) | inactive
7 | Cn1nc(C(=O)NCC(c2cccs2)N2CCOCC2)c2ccccc2c1=O (stereo not drawn) | inconclusive: 3.55 µM [inhibitor, single point]
8 | CC(C)(C)NC(=O)CSc1nnc(-c2ccccn2)n1Cc1ccccc1 | inactive
9 | CC(=O)Nc1cc(-c2ccccc2)cn2c(-c3ccc(F)c(Cl)c3)cnc12 | inactive
10 | O=C(Cc1ccccc1)Nc1ccc(-c2nnc(-c3ccco3)o2)cc1 | inactive
11 | Cc1ccc(C)c(N2CCN(C(=O)c3cc(C)nc4c3c(C)nn4-c3ccccc3)CC2)c1 | inconclusive: 11.2 µM [inhibitor, partial curve]
12 | COc1ccccc1Cc1c(-c2cccc(Br)c2)nc2ccc(Cl)cn12 | inconclusive: 15.8 µM [inhibitor, single point]
13 | COc1cc(CN(C(=O)COc2ccc(F)cc2)c2ccccn2)cc(OC)c1OC | inconclusive: 5.62 µM [inhibitor, partial curve, poor fit]
14 | O=C(c1ccc2ccccc2c1)N1CCN(c2ccccc2)CC1 | inconclusive: 4.47 µM [inhibitor, full curve, poor fit]
15 | N#Cc1nc(-c2cccc3ccccc23)oc1NCCN1CCCCC1 | inactive
16 | COc1cccc(NC(=O)CN(C)C(=O)c2ccc(S(=O)(=O)Nc3ccccc3F)cc2)c1 | inactive
17 | Cc1ccc(S(=O)(=O)N2CCOCC2)cc1NC(=O)CN1CCN(C)CC1 | inactive
18 | O=C(CCCSc1nc2ccccc2[nH]1)Nc1nnc(-c2ccccc2)o1 | inconclusive: 6.31 µM [inhibitor, single point]
19 | COc1ccc2nc(C)cc(Nc3ccccc3OC)c2c1 | inactive
20 | N#CCSc1nnc(-c2cnccn2)n1Cc1ccccc1 | inconclusive: 35.5 µM [inhibitor, single point]
21 | COc1ccc(N=C2SCC(c3ccccc3)=NN2C)cc1 | inconclusive: 35.5 µM [inhibitor, partial curve, poor fit]
22 | O=C1CCC(C(=O)OCC(=O)N2N=C3/C(=C/c4ccccc4)CCCC3C2c2ccccc2)N1 (stereo not drawn) | inconclusive: 14.1 µM [inhibitor, partial curve, poor fit]
23 | NC(c1csc(Nc2nncc3ccccc23)n1)C1CCCCC1 (stereo not drawn) | inconclusive: 35.5 µM [inhibitor, single point]

Row | Compound | Potency
24 | Clc1ccc2c(c1)-n1cc(-c3ccccc3)nc1CO2 | inconclusive: 35.5 µM [inhibitor, partial curve, poor fit]
25 | Nc1nc(-c2ccccc2)c(N=Nc2ccccc2Cl)s1 | inconclusive: 35.5 µM [inhibitor, single point]
26 | COc1ccc(-c2nn(-c3ccccc3)cc2/C=N/Nc2ccccn2)cc1OC | inconclusive: 2.51 µM [inhibitor, partial curve]
27 | COc1ccc(NC(=O)CSc2oc(-c3cccs3)nc2S(=O)(=O)c2ccccc2)c(OC)c1 | inactive
28 | COc1ccc(C)cc1NC(=O)c1ccc(CN2CCc3ccccc3C2)cc1 | inactive
29 | CCOc1ccc(C(=O)NCc2ccccc2)cc1Br | inactive
30 | O=C(Nc1ccc2c(c1)CCCN2C(=O)c1cccs1)c1ccc(F)c(F)c1 | inconclusive: 20 µM [inhibitor, single point]
31 | O=C(O)c1cn(Cc2ccccc2)c2ccc(Cl)cc2c1=O | inconclusive: 4.47 µM [inhibitor, full curve, poor fit]
32 | CCc1nc2c(OCC3CCCCC3)cccn2c1N(C)C(=O)c1ccccc1F | inconclusive: 35.5 µM [inhibitor, single point]
33 | COc1ccc(C(=O)c2cn(Cc3ccccc3F)c3cc4c(cc3c2=O)OCCO4)cc1OC | inconclusive: 0.251 µM [inhibitor, full curve, poor fit]
34 | CC(C)(C)[C@@H]1CCC(=O)N(CC[C@H](N=[N+]=[N-])c2ccccc2)CC1 | inconclusive: 35.5 µM [inhibitor, single point] and inconclusive: 5.01 µM [inhibitor, full curve, poor fit]
35 | COC(=O)[C@]1(Cc2ccccc2)N[C@H](CN(C)C(=O)Nc2ccc(C(F)(F)F)cc2)[C@@H]2C(=O)N(C)C(=O)[C@@H]21 | inactive
36 | COc1ccc(NC(=O)c2oc3ccccc3c2CSC)cc1S(=O)(=O)N1CCOCC1 | inactive
37 | COc1cc(C2NC(=O)NC(C)=C2C(=O)OC2CCCCC2)cc(Br)c1O (stereo not drawn) | inconclusive: 3.16 µM [inhibitor, single point]
38 | C#CCn1c(=NC(=O)c2ccc(S(=O)(=O)N3CCCc4ccccc43)cc2)sc2cc(S(N)(=O)=O)ccc21 | inconclusive: 12.6 µM [inhibitor, partial curve]
39 | Nc1nonc1-n1nnc(C(=O)N/N=C/C=C/c2ccccc2)c1CSC1=NCCS1 | inconclusive: 11.2 µM [inhibitor, partial curve, poor fit]
40 | C[C@@H]1CN([C@@H](C)CO)C(=O)c2cccc(NC(=O)Nc3ccc(F)cc3)c2O[C@@H]1CN(C)Cc1ccc(Oc2ccccc2)cc1 | active: 3.98 µM
41 | COc1ccc(NC(=O)CN(c2ccc(C)cc2)S(=O)(=O)c2c(C)nn(C)c2C)cc1 | inactive
42 | CCc1nc2c(OCCn3cccc3)cccn2c1N(C=O)Cc1ccccc1 | inactive
43 | CCCCNc1c(-c2ccc(OC)c(SC(C)CC)c2)nc2cc(C)ccn12 (stereo not drawn) | active: 11.2 µM
44 | COc1ccc(N(CC(=O)Nc2cccc(C)c2)S(=O)(=O)c2c(C)n[nH]c2C)cc1 | inactive
45 | Cc1c(NC(=O)C(C)OC(=O)c2ccc([N+](=O)[O-])s2)c(=O)n(-c2ccccc2)n1C (stereo not drawn) | inconclusive: 20 µM [inhibitor, single point]
46 | COc1cccc(OCc2cc(/C=N/Nc3ccc(C(=O)O)cc3)ccc2OC)c1 | inactive

Row | Compound | Potency
47 | NC(=O)C1=C(N=C2CCCCC2)CCCC1 | inactive
48 | O=C1CC(N2CCCCCC2)C(=O)N1c1ccc2c(c1)OCO2 (stereo not drawn) | inactive
49 | O=C(COc1ccccc1C(=O)Nc1ccccc1)Nc1ccccc1-c1ccccc1 | inconclusive: 8.91 µM [inhibitor, single point]
50 | COc1ccc(CNC(=O)CCCn2nc(C)n3c(cc4sccc43)c2=O)cc1 | inconclusive: 14.1 µM [inhibitor, partial curve, poor fit]
51 | COc1ccccc1C1CC(c2ccccc2)=NN1C(=O)c1ccccc1 (stereo not drawn) | inconclusive: 35.5 µM [inhibitor, single point]
52 | CC(=O)c1ccc(NC(=O)CSc2nnc(-c3ccoc3C)n2Cc2ccccc2)cc1 | inactive
53 | O=S1(=O)CCOC[C@H](c2ccccc2)N1Cc1cccc(F)c1 | inconclusive: 7.08 µM [inhibitor, full curve, poor fit] and inconclusive: 2.82 µM [inhibitor, single point]
54 | CN1CCN(c2nc(-c3ccc(Br)cc3)nnc2-c2ccccc2)CC1 | inactive
55 | COc1cccc(CNC(=O)C2CCCN(S(=O)(=O)N(C)c3ccc(F)cc3)C2)c1OC (stereo not drawn) | inconclusive: 25.1 µM [inhibitor, single point]
56 | O=C(Nc1cccc2c1CCCC2)c1cc(C2CCCCN2C(=O)c2cccs2)on1 (stereo not drawn) | inactive
57 | Cc1ccc2c(cnn2C(=O)CCC(=O)NC2CCCCC2)c1 | inactive
58 | CCOC(=O)c1ccccc1NC(=O)COC(=O)C1CC(=O)N(CCc2ccccc2)C1 (stereo not drawn) | inactive
59 | CN(CC(=O)Nc1ccc(OC(F)(F)F)cc1)C(=O)c1ccccc1SCC(=O)N1CCCC1 | inconclusive: 2.82 µM [inhibitor, single point]
60 | COc1cccc(CN=C2Nc3ccccc3CS2)c1 | inconclusive: 0.316 µM [inhibitor, partial curve, poor fit]
61 | COCCCNC(=S)N1CCCN(c2nc3cc(C)c(C)cc3cc2C#N)CC1 | inconclusive: 35.5 µM [inhibitor, single point]
62 | COC(=O)CNC(=O)C(NC(=O)c1ccc(Cl)cc1)C(C)C (stereo not drawn) | inconclusive: 35.5 µM [inhibitor, single point]
63 | O=C(Nc1ccc(Oc2ccc(Cl)cc2)c(Cl)c1)c1cc(I)cc(I)c1O | inactive
64 | Cc1c(C(=O)Nc2ccc(Cc3ccncc3)cc2)cccc1[N+](=O)[O-] | inconclusive: 35.5 µM [inhibitor, partial curve, poor fit]
65 | Cc1cccc(C(=O)NC(=S)Nc2ccc(Cc3ccncc3)cc2)c1 | inconclusive: 20 µM [inhibitor, single point]
66 | Cc1cccc2cc(CN(Cc3cccs3)Cc3nnnn3Cc3ccccc3)c(=O)[nH]c12 | inconclusive: 10 µM [inhibitor, partial curve]
67 | CN(C)C(CNC(=O)c1cnc(Cl)c(Cl)c1)c1ccccc1 (stereo not drawn) | inconclusive: 15.8 µM [inhibitor, single point]
68 | COc1ccc(C(NC(=O)C2CCN(CCCc3ccccc3)CC2)c2cccs2)cc1 (stereo not drawn) | inconclusive: 7.94 µM [inhibitor, partial curve, poor fit]
